# Assay results reported in patent US20240368574A1 (BELLICUM PHARMACEUTICALS, published 2024).
# T1: four tandem FRBL domains expressed from pBP0725 pSH1-FRBl.FRBl'.LS.FRBl''.FRBl'''
# T1 chain: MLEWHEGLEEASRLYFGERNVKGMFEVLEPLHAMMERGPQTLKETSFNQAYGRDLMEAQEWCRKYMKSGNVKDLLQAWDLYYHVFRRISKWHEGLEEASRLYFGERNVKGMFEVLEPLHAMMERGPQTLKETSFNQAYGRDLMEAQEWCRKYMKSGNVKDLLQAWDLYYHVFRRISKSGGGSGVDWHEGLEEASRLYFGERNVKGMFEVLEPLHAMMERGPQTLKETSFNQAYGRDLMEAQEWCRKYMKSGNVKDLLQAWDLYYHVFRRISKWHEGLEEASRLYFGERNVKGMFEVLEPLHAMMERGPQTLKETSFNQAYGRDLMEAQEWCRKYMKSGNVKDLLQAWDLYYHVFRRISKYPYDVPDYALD
# Target: T1, four tandem FRBL domains expressed from …
# Assay: cell-based or functional assay
binder,measurement,value
FKBP12v36-ΔCaspase-9 (iCaspase-9) expressed from pBP0044 pSH1-iCaspase9wt (other) [about 100 residues not spelt out]GGGSGVDGFGDVGALESLRGNADLAYILSMEPCGHCLIINNVNFCRESGLRTRTGSNIDCEKLRRRFSSLHFMVEVKGDLTAKKMVLALLELARQDHGALDCCVVVILSHGCQASHLQFPGAVYGTDGCPVSVEKIVNIFNGTSCPSLGGKPKLFFIQACGGEQKDHGFEVASTSPEDESPGSNPEPDATPFQEGLRTFDQLDAISSLPTPSDIFVSYSTFPGFVSWRDPKSGSWYVETLDDIFEQWAHSEDLQSLLLRVANAVSVKGIYKQMPGCFNFLRKKLFFKTSASRAEGRGSLLTCGDVEENPGP,"IC50 of rapamycin or C7-isopropoxy-rapamycin (the small-molecule heterodimerizer, not of a protein) for loss of SRα-SEAP reporter activity in transfected 293 cells",~3 nM
